According to the supplement of paper PMC10126150:
Sequences with one replicate were seen in a single cluster, so their values are uncertain.

System: ATP
Test: switch fluorescence ratio, 500 uM ATP over buffer (Cy3 cluster intensity, sum of 5 cycles each) (fold (ratio)); higher = stronger signal-on switching upon ATP binding; sequences stand for … in TCGTCGGCAGCGTCAGATGTGTATAAGAGACAGTTTTTTTTTTTTTTTTTTTTTTTTT…TC
Conditions: aptamer strand: ATP DNA aptamer (quencher-CACCTGGGGGAGTATTGCGGAGGAAGG + anchor), 100 nM annealed; ATP concentration: 500 uM; one replicate
Method in brief: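 The quencher-labelled ATP aptamer, at 100 nM, was annealed to Cy3-labelled switching-strand clusters on a modified Illumina MiSeq flow-cell. The clusters were imaged in selection buffer, then after 15 min with 500 uM ATP at 22 °C, and this buffer/ATP cycle ran five times with NaOH stripping and re-annealing between runs. Per-cluster fluorescence ratios, summed target-cycle over summed buffer-cycle Cy3 intensity, were averaged per switch-domain sequence. Clusters outside 100-1000 RFU were excluded.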
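Also: ATP exposure 15 min at 22 °C before imaging.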

| Sequence | switch fluorescence ratio |
| --- | --- |
| ACTAACTAGG | 1.17 |
| CCCGAATACG | 2.52 |
| GGCGGGCAGG | 0.983 |
| GTTGATGCAG | 0.998 |
| CATGTAACCA | 1.04 |
| GCGTCGGATG | 0.988 |
| TCGGGAGGTG | 1.03 |
| TCTGTCGATA | 1.06 |
| GGGCACAAAA | 1.04 |
| CAGTACCAAC | 1.09 |
| GCGCCGCGGA | 1.29 |
| TACTGAAACC | 1.16 |
| CAAAACTAGG | 1.03 |
| AGATTTGCAC | 1 |
| GTGAACACTA | 0.99 |
| GTCTTTCGTA | 0.99 |
| AAATTGCGGA | 0.981 |
| ATCTGTCCAC | 0.987 |
| GAAGAATAGC | 0.995 |
| CGATAGTTGC | 1.03 |
| ATCATATTCA | 0.952 |
| TAAGGTATAA | 1 |
| TTACGCGGCA | 1.02 |
| TTGGCCGGAC | 0.976 |
| AGATTGCTAA | 1 |
| AAGCGGGTCT | 1.03 |

| Sequence | switch fluorescence ratio |
| --- | --- |
| GTTCATCTC | 0.994 |
| TACCCGGTCC | 1.79 |
| TATTGATTAA | 0.98 |
| ATGATTATTG | 1.01 |
| GACAGTGGAT | 1.01 |
| CCCGATGGGG | 1.04 |
| TTTTGCTTAT | 0.954 |
| ACTCGTCACT | 1.12 |
| ACTGGGAATA | 1.02 |
| ATATGTGTCA | 1.04 |
| GTCGGCAGGC | 1.06 |
| GCGGAAAGTG | 0.934 |
| TGCACGCCGG | 1.06 |
| GTTTAATCGG | 1.02 |
| ATTGGAGAAC | 1.02 |
| TTCGGGCT | 1.03 |
| GAAAATGAT | 1.04 |
| CTTATTGGGC | 1.03 |
| GTCAATGCCC | 1.11 |
| ACAGGGATCT | 0.982 |
| GTTCTT | 1.04 |
| CGATTATGGC | 1.03 |
| TTAAATTCGT | 1.02 |
| AAGTGTGGTG | 0.995 |
| ACGAGTAACA | 1.04 |
| TGTCAGTTAG | 1.04 |

| Sequence | switch fluorescence ratio |
| --- | --- |
| TATTAAGGT | 1.02 |
| TTGAGGAACA | 1.04 |
| GTGTGTCTCA | 0.999 |
| ACGTCTTGTG | 0.951 |
| AACAACTCTT | 1.02 |
| AGCGTCCGCT | 0.995 |
| TTGCAGTCCC | 1.34 |
| GGACTGTGGT | 0.975 |
| TTATCTTTCT | 0.966 |
| CTAGGTATAA | 1.04 |
| GCTCGTCAGG | 1.03 |
| CGCGCCGGGA | 1.05 |
| CCGTATGTGG | 0.967 |
| GAGGACCGCA | 1.29 |
| GCGCCATCAG | 0.994 |
| ATACGTATGG | 1.04 |
| ATAACTCGC | 1.04 |
| GCGCGTAGGT | 1.05 |
| ATGGCCCCGC | 1 |
| GAATCTTGCA | 1.03 |
| AACTCTCAGG | 1.3 |
| AAAATCCGTA | 1.01 |
| TTACTAACCA | 1.07 |
| GGGTGCCGTT | 0.932 |
| TGAGAGCTTA | 0.954 |
| AGCCGACGCG | 1.05 |

| Sequence | switch fluorescence ratio |
| --- | --- |
| TGGCCGACGA | 0.994 |
| AACAGACCTG | 0.991 |
| AAGCAGTAAT | 1.04 |
| TAGATATGCC | 1.03 |
| TTCGAAGGCG | 1.08 |
| TTCGGACGTG | 0.987 |
| AGACTAGGGA | 1.01 |
| GCCATTGGGT | 0.972 |
| AGCTTTCCCC | 1.04 |
| ACCGTAGTGC | 1.71 |
| ATATATTACG | 1.04 |
| TAAGATTG | 0.978 |
| GCTCGGTGAC | 1.05 |
| ACGGCGGCGC | 1.04 |
| TAAGGCCCGA | 0.988 |
| ACCGGCTCCT | 1.11 |
| AGGGGACCAA | 0.953 |
| CGTTTGGAGT | 0.989 |
| AGAGCGGGAC | 1.38 |
| CCAGACGATC | 1.09 |
| CCATGTAGCC | 1.08 |
| CCGAGTCCGT | 2.22 |
| TTACATTATT | 1.01 |
| TTACTTCGAG | 1 |
| ATTTAACTGG | 1.03 |
| AAAGCTCATG | 1 |

| Sequence | switch fluorescence ratio |
| --- | --- |
| ACACTGGCGA | 0.919 |
| ATGCAGATGC | 1.03 |
| TCGTCAGATG | 0.965 |
| CTTTGATGGT | 0.979 |
| CCACCCTTTG | 1.06 |
| CAGGGCAAAG | 1.02 |
| ACATCAGGGA | 1.02 |
| TGACCTC | 1.02 |
| TGTTACTGCA | 1.14 |
| TGAAGTACGA | 1.13 |
| TAAGACGACA | 1.06 |
| AAGTTATTTC | 1.03 |
| TAGAATATTG | 1.01 |
| CAGGAGTTCT | 0.991 |
| ACTTATATAC | 1.25 |
| GAGTCCAA | 1.04 |
| AAGCTTACAG | 1.09 |
| AAACCCGTTG | 1.01 |
| ACACACCCTA | 1.23 |
| GCTAATCTGG | 1.03 |
| TTATGAGCTA | 1.01 |
| TGGTCGGCTC | 0.944 |
| CAATTAGCTG | 0.95 |
| CATACCGGCG | 1.01 |
| TGGCATGTT | 1.05 |
| AATGCTAATT | 1.04 |

| Sequence | switch fluorescence ratio |
| --- | --- |
| CTTTAGAAAC | 0.982 |
| GGTATACTGG | 0.985 |
| CGGTGTTTCG | 0.97 |
| CGGTATATAG | 1.04 |
| TCCAATTTAC | 1.56 |
| GTTACGCAGT | 1.07 |
| AGAACTTCAT | 1.04 |
| CGAAGGGCCC | 0.998 |
| AGCTCAACTC | 1.07 |
| CGATTCAAAG | 1.01 |
| ATTGTCTTG | 0.969 |
| GCTGCATGCG | 1.03 |
| GCATGCGCCG | 1.05 |
| ACGCTGATTG | 1.03 |
| CGACAAACAG | 1.02 |
| GAGACAACGT | 0.957 |
| CCTGCATGTA | 1.41 |
| GGCTCATAGC | 1.01 |
| CTTTGGGGTC | 0.981 |
| TATCTACAAC | 1.05 |
| GATCACAGGC | 1.07 |
| TAGTTGCGGG | 1.05 |
| ATGTCGGTTA | 0.964 |
| CTACAGGCAT | 1.05 |
| ACAGTGGCGT | 0.983 |
| TCTAGGGGCC | 1.01 |

| Sequence | switch fluorescence ratio |
| --- | --- |
| GCGCTAACTT | 1.03 |
| CTGCCTTTCG | 1.05 |
| CGAAGGTGAC | 1.19 |
| GGGCTCTA | 0.976 |
| GTAATCTAAT | 0.965 |
| CTGTTCACGC | 1 |
| AAAATTTATC | 1 |
| TTGAGCCAGT | 1.06 |
| CGTGCCTGTA | 0.93 |
| AAGGTGGAGA | 1.02 |
| GGCTTTCTGA | 1.02 |
| TCACGGGCGT | 0.988 |
| GCGAGCGTG | 0.985 |
| CGTCGAAGTG | 0.994 |
| GACTCAGCCC | 1.33 |
| GAATACAGGT | 0.99 |
| ATCCTTGTAA | 1.05 |
| TTTGTACCCG | 1.03 |
| AGTGTTGAGA | 1.03 |
| CTTATTGGGG | 1.01 |
| CGTTAACAAT | 1.02 |
| GGGAAATGCT | 1.01 |
| CGTAGGTTAC | 1.72 |
| GAGGAGATGG | 1.01 |
| TGGATGGCAA | 1.02 |
| CCGAGAATAG | 5.26 |

| Sequence | switch fluorescence ratio |
| --- | --- |
| GGCGCTTCGA | 0.99 |
| TGTGATTAGA | 1.01 |
| GGTAAAGGTC | 0.975 |
| CTCAGGTTTC | 1.04 |
| ACAGGGTTT | 0.979 |
| ATGTAATACA | 0.968 |
| GAAATAATTG | 0.98 |
| AGATAGAACC | 1.02 |
| GCTCGGGTGG | 0.985 |
| GGTTGGATTG | 1.01 |
| ATAGGAACTC | 1.03 |
| GGAGAGCCTC | 0.933 |
| TGTCTTCCGT | 1.08 |
| CTCGGACCGT | 1.01 |
| AAGTGTCCGG | 0.962 |
| GAAGATTATG | 0.999 |
| AAACATCGTA | 1.02 |
| CTCTTACTTG | 1 |
| TCGGCTATAG | 1.09 |
